Source: the supplement of paper PMC10338343
± gives the standard deviation. In all, about 5,500 sequences were measured (“pre-steady-state target cleavage rate”: median about 0.1, highest 2% from about 0.64 on). The entries are a selection whose mix differs from that of the whole data set.

The sequences below were run on MIWI (PIWIL1) piRISC loaded with piRNA #2 (30 nt) (assay: pre-steady-state target cleavage rate (min^-1); MIWI and MILI are mouse PIWI proteins and EfPiwi is from a freshwater sponge; tags in brackets are library labels; higher = faster piRNA-guided slicing of the target). Details: guide: piRNA #2 5'p-UUAGGUAACCCAGUAGAUCCAGAGGAAUUC; auxiliary factor: 500 nM mouse GTSF1.
Procedure: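 Cleave-'n-Seq: a library of target RNAs (target site embedded in constant flanks, ACAGCATTCCGCGTTAGTGATATCCG... 5' flank; DNA-blocked outside the site) at 0.1 nM was incubated with 1 nM active mouse MILI or MIWI piRISC (synthetic 5'-monophosphorylated piRNA guide) with or without 500 nM mouse GTSF1 at 33 °C for 1 min to 16 h. Uncleaved targets were sequenced and normalised to non-target controls, and the pooled three trials were fitted to a burst-and-steady-state model to give the pre-steady-state cleavage rate (min^-1; k3 is constrained to at most 1e-4). Sequence is the target site only; target names encode pairing extent (gX:gY) and contiguous / 1-mismatch / 2-mismatch / bulge geometry. Fits with R² ≤ 0 are excluded.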

Sequence | pre-steady-state target cleavage rate
CUUAACCUCUGGAUCAACUGGGUUAGCUAA | 0.0963 ± 0.014
CUUAUCCACUGGAUCUACUGGCUUACCUAA | 0.0551 ± 0.013
CUUAUCCUCUGGAUCUUCUGGGUUUCCUAA | 0.111 ± 0.031
CAAUGCCUCUGGAUCUACUGGGUUACCUAA | 0.309 ± 0.044
GAAUUCCUCUGGAUCUACAUGGGUUACCUAA | 0.00473 ± 0.0037
CUUAAGGUCUGGAUCUACUGGGUAUCCUAA | 0.0627 ± 0.017
CUUAAGGUCUCGAUCUACUGGCUUACCUAA | 0.0846 ± 0.023
CUUUUCCUCUGGUUGUACUGGGUUACCUAA | 0.531 ± 0.038
CUUAUCGUCUGGAUCUACUGGGAUACCUAA | 0.285 ± 0.043
CUUAUCCUGCUGGAUCUACUGGGUUACCUAA | 0.524 ± 0.072
CUUAAGGAGUGGAUCUACAGGGUUACGUAA | 0.0493 ± 0.011
CUAUUCCUUUGGAUCUACUGGGUUACCUAA | 0.56 ± 0.054
GAAUACCUCUGGUUCUACUGGGUUACCUAA | 0.59 ± 0.052
CAAUUCCUCUGGAUCUUACUGGGUUACCUAA | 0.0053 ± 0.0043
CUUAAGCUCUGGAUCUACUGGGAUUACCUAA | 0.0208 ± 0.0063
CUAUUCCUCAGGAUCUACAGGGUUACCUAA | 0.265 ± 0.027
CAAUUGCUCUGCAUCUACUGGGUUACCUAA | 0.386 ± 0.055
CUUUUCCUCUGGAUCUACUGGGUUAUCCUAA | 0.56 ± 0.07
CUUAACCUCUGGAUCAACUGGGUUACCUAA | 0.221 ± 0.026
GAAUUGCUCUGGAACUACUGGGUUACCUAA | 0.0998 ± 0.028
CUUAAGGACUGGAUCUACUGGGUCUACCUAA | 0.0638 ± 0.033
CUUUUCCUCUGGAUCUACUCCGUUACCUAA | 0.0234 ± 0.0069
CUUAAGGAGACCUAGUACAGCGUUACCUAA | 0.0042 ± 0.0016
CAAUUGCUCUGGAUCUACUGGGAUACCUAA | 0.238 ± 0.037

Sequence | pre-steady-state target cleavage rate
CAAUUCCUCUGCAUCUACUGGGUUUCCUAA | 0.285 ± 0.083
GAAUUCCUCUGAUCUACUGGGUUACCUAA | 0.454 ± 0.062
CUUGUCCUCUGGAUCUACUGGGUUACCUAA | 0.247 ± 0.035
CUAUUCCUCUCGAACUACUGGGUUACCUAA | 0.474 ± 0.038
CUUAAGGAGUGGAUCUACUGGGUUACCAUAA | 0.0177 ± 0.011
CUUUUCCUCUGGAUCUACUGGGUUACCUAU [g2:g27:cont:t1U] | 0.371 ± 0.051
CUAUUCCUCUGAUCUACUGGGUUACCUAA | 0.395 ± 0.048
CUUAAGGACUGGAUCUACUGGGUUACACUAA | 0.211 ± 0.071
CUUAAGGUCUGGUUCUACUGGGUUACGUAA | 0.296 ± 0.037
CAAUUCCUCUGGAUCUACUGGGUUACCUUA | 0.425 ± 0.066
CAAUUCCUCUGGAUCUACUGCGUUACCAAA | 0.434 ± 0.097
CUUAAGGUUCUGGAUCUACUGGGUUACCUAA | 0.127 ± 0.015
CUUAUCCUCUGGAUCUUGUGGGUUACCUAA | 0.00506 ± 0.0026
GAAUUCCUCUGCAUCUACUGGGUUACGUAA | 0.497 ± 0.038
CUUUUCCUCUGGAACUACUGGGUUACCUAA | 0.447 ± 0.032
CUUAUCCUCUGGAUCUACGGGUUACCUAA | 0.0503 ± 0.0077
CUUAAGGACUGGAUGUACAGGGUUACCUAA | 0.0401 ± 0.024
CUUAAGCUCUGGAUCUACAGGGUUACCAAA | 0.102 ± 0.013
CUUAACCUCUGGAUCUAGUGCGUUACCUAA | 0.0345 ± 0.007
GAAUUCCUCUGGUCUACUGGGUUACCUAA | 0.301 ± 0.059
CUUUACCUCUGGAUCUUCUGGGUUACCUAA | 0.261 ± 0.035
CUUAUCCUCUGGAUCUACUCGGAUACCUAA | 0.0144 ± 0.0094
GAAAUCCUCUGGAACUACUGGGUUACCUAA | 0.253 ± 0.041
CUUACCCUCUGGAUCUACUGGGUUACCUAA | 0.324 ± 0.032

Sequence | pre-steady-state target cleavage rate
CAAUUCCUCUGUGAUCUACUGGGUUACCUAA | 0.507 ± 0.032
GCAAUUCCUCUGGAUCUACUGGGUUACCUAA | 0.202 ± 0.042
CAAUUCCUCUGGUAUCUACUGGGUUACCUAA | 0.548 ± 0.083
CUUAAGCUCUGGAUCUACUGGGUGACCUAA | 0.081 ± 0.011
CUAUUCGUCUGGAUGUACUGGGUUACCUAA | 0.0594 ± 0.033
CUUAAGGAGUGGAUCUACUGGGUUACCUAG [g2:g21:cont:t1G] | 0.0565 ± 0.01
GAAUUCCUCUGAAUCUACUGGGUUACCUAA | 0.306 ± 0.055
CUUAUCCUCUGGAUCUAGUCGGUUACCUAA | 0.00661 ± 0.004
CUUAUCCUGUGGAUCUACUGGGUUACCUUA | 0.307 ± 0.049
CAAUUCCUCUGGAUCUACUGGGUUUGCUAA | 0.323 ± 0.073
CUUUUCCUCUGGACUACUGGGUUACCUAA | 0.25 ± 0.03
CUUUUCGUCUGCAUCUACUGGGUUACCUAA | 0.394 ± 0.033
CUAUUCCUCUGGAUGUACUGGGUUUCCUAA | 0.486 ± 0.12
CUUAUCCUCUGGAUCUAGUGGCUUACCUAA | 0.00764 ± 0.0042
GAAUAUCCUCUGGAUCUACUGGGUUACCUAA | 0.109 ± 0.044
CUAUUCCUCUGGAUCAACUGGGUUACCAAA | 0.365 ± 0.053
CUUAUCCUCAUGGAUCUACUGGGUUACCUAA | 0.486 ± 0.057
CUUAAGGUCUGGAUCUACUGGGUUUCCUUA | 0.0461 ± 0.011
CAAUUCCUCUGGAUUCUACUGGGUUACCUAA | 0.473 ± 0.059
CUUAAGGACUGGAUAUACUGGGUUACCUAA | 0.129 ± 0.061
CUUAUCCUCUGGAUCUACUGGGUUAGCAAA | 0.301 ± 0.073
CUUAAGGACUGGAUCUACUGGGUUACCUCA | 0.0791 ± 0.038
GAAUUCCUCUGGAUCUACUGGGAUACCUUA | 0.163 ± 0.047
GAAUACCUCUGGAUCUACUGGGUUAGCUAA | 0.615 ± 0.052
